In all, about 150,000 compounds went through this assay and about 540 (0.36%) showed an effect of 50% or more. Some of the results follow.

We go through 84 molecules from ChEMBL document CHEMBL4888484, “Replenishing the malaria drug discovery pipeline: Screening and hit evaluation of the MMV Hit Generation Library 1 (HGL1) against asexual blood stage Plasmodium falciparum ,using a nano luciferase reporter read-out” (2022).

This assay concerns Plasmodium falciparum. Briefly: Primary screen in NF54 nanoGlo assay, in single point, at 2uM, 72h; a lower Z score goes with more inhibition. In kind it is functional, Erythrocyte. The note with it: timepoint 72 hour.
As to `C[C@H]1C[C@@H](C(=O)Nc2ccc(C(=O)Nc3ccccc3)cc2)O[C@@H]1C(=O)O`, the “% Inhibition” value was found to be 13% and the Z score is given as -1.63.
For `O=C(Nc1ccccc1)C(=O)Nc1ccc2ncc(Cl)n2c1`, the “% Inhibition” value stood at 31% and the Z score is -0.66.
With `COCC(=O)NC[C@H]1OC[C@@H](NCc2ccc(C)cc2)[C@@H]1O`, the “% Inhibition” value came to 29% and the Z score is on record as -3.29.
Take `CC(C)(C)c1cnc(CN[C@H]2CCCN(c3ncccn3)C2)s1`: the “% Inhibition” value was -14% and the Z score is on record as 2.12.
For `COc1cccc(CCC(=O)N2CCCc3c2nc[nH]c3=O)c1F` the same measures were -21% and 3.53.
For `COc1ccccc1CNC(=O)c1cccnc1O[C@H]1CCOC1` the same measures were 0% and -0.03.
Take `COc1nc(CNC(=O)c2ccsc2)nc(N2CCOCC2)n1`: the “% Inhibition” value was -5% and the Z score is 0.78.
`COc1cc(OC)c(NC(=O)N2CCC3(CC2)CN(C)C[C@@H]3c2nnc(C)o2)cc1Cl`: the “% Inhibition” value is 4% and the Z score was -0.75.
In the case of `CCc1onc(C)c1NC(=O)NC[C@H](C)c1nc(C)cs1`, the “% Inhibition” value was -8% and the Z score is given as 0.88.
In the case of `CN(Cc1nnc[nH]1)S(=O)(=O)c1ccc2nc(C(C)(C)C)sc2c1`, the “% Inhibition” value was -9% and the Z score is recorded as 0.75.
For `Cn1c(CS(=O)(=O)Cc2ccccc2OC(F)F)cc(=O)n(C)c1=O` the same measures were 10% and -1.36.
Turning to `O=C(Nc1ccc2nc(N3CCCC3)sc2c1)[C@H]1CCS(=O)(=O)C1`, the “% Inhibition” value is on record as 0% and the Z score is on record as -0.04.
For `COc1ccc(-c2c[nH]c(CNS(=O)(=O)c3cccs3)n2)cc1` the same measures were -15% and 2.38.
For the molecule `COc1ccc(CCNC(=O)C(=O)NCCc2ccccc2)cc1`, the “% Inhibition” value was -10% and the Z score is 1.86.
On to `Cc1cnn(C[C@H](C)NCc2sc(N3CCOCC3)nc2C)c1`, for which the “% Inhibition” value was -6% and the Z score is given as 0.85.
For `CC(C)c1ccc2ncnc(N[C@H]3CCc4[nH]cnc4C3)c2c1` the same measures were 96% and -17.94.
For `Cc1cc(S(=O)(=O)Nc2ccc3cn[nH]c3c2)c(C)o1` the same measures were -6% and 0.78.
For `Cc1nc(C)c(C(=O)OCc2cccc3cccnc23)s1` the same measures were -18% and 3.51.
Consider `CC(C)CCc1nc([C@@H](N)CO)n(-c2ccc(F)cc2)n1`, for which the “% Inhibition” value stood at 8% and the Z score is listed as -1.62.
With `COCC1(CNCc2ccc(Cl)cc2C)CCC1`, the “% Inhibition” value is listed as 6% and the Z score is listed as -1.23.
For `CCOC(=O)N1CC[C@H](Oc2ncccn2)C1`, the “% Inhibition” value was -5% and the Z score was determined as 0.95.
With `O=C(c1cnn2ccccc12)N1CCc2nc[nH]c2C1`, the “% Inhibition” value was 0% and the Z score is -0.07.
As for `CC(=O)Oc1ccc(N2C(=O)C3C(Cc4c[nH]c5ccccc45)NC4(C(=O)Nc5ccc(Cl)cc54)C3C2=O)cc1` (stereo not drawn), the “% Inhibition” value was -9% and the Z score is 0.83.
In the case of `Cc1nc(C)c(-c2ccc(C(=O)NCCN(C)S(C)(=O)=O)cc2)s1`, the “% Inhibition” value is given as -9% and the Z score came to 1.24.
On to `CCn1cc(CN2CCC(O)(C(F)(F)F)CC2)cn1`, for which the “% Inhibition” value was -3% and the Z score came to 0.46.
As to `Clc1ccc(CN2CCN(c3nc4ccccc4c4nnc(C5CCCCC5)n34)CC2)cc1`, the “% Inhibition” value turned out to be 9% and the Z score is on record as -1.47.
With `CN(C(=O)c1cnc(-c2ccsc2)s1)c1nncn1C`, the “% Inhibition” value was found to be 1% and the Z score is reported as -0.12.
Consider `COc1cncc(C(NC(=O)NC(C)(C)CC(C)(C)C)[C@H]2C[C@H](O)C2)c1` (stereo partly drawn), for which the “% Inhibition” value is listed as -13% and the Z score amounted to 2.56.
For `O=C1NC(=O)N2CCN(Cc3ccc(OCc4ccc(F)cc4)cc3)C[C@@H]12` the same measures were -12% and 1.49.
Take `CCOC(=O)c1nccc(C#N)c1Cl`: the “% Inhibition” value stood at 40% and the Z score is given as -5.19.
Regarding `Cc1cc(C)c(S(=O)(=O)N2CCC3(CC2)NCCN=C3NCc2ccc3c(c2)OCO3)cc1C`, the “% Inhibition” value is given as -8% and the Z score is 1.1.
Take `Cc1cc(C)c(C(=O)N2CCO[C@H](C(=O)C3CC3)C2)o1`: the “% Inhibition” value is reported as 9% and the Z score is listed as -1.71.
For `CCOc1ccc(C(=O)N(C)CCN(C)C(=O)c2ccc(OCC)c(OCC)c2)cc1OCC` the same measures were 2% and -0.31.
For `CCCCc1nc(CN(C)CC#N)cs1` the same measures were -8% and 1.22.
Consider `Cc1cc(C)cc(OCc2noc(CN(CCO)C3CC3)n2)c1`, for which the “% Inhibition” value amounted to 0% and the Z score is reported as -0.03.
In the case of `C[C@H](O)c1cc2n(n1)CCCN(c1nc3ccccc3n1CCO)C2`, the “% Inhibition” value is recorded as -6% and the Z score came out at 1.1.
For `O=C1CC[C@@H](C(=O)NCc2nc(C3CCC(F)(F)CC3)no2)N1`, the “% Inhibition” value is recorded as -16% and the Z score came to 2.17.
For `Cc1cc([C@@H]2CCCCN2c2nc3c(s2)c(C)nn3C)no1` the same measures were -1% and 0.14.
For `CN(CCc1cccs1)C1Cc2ccccc2C1O` (stereo not drawn) the same measures were -10% and 0.97.
As to `Cc1cc(Cl)ccc1OCC(=O)NS(C)(=O)=O`, the “% Inhibition” value is reported as -2% and the Z score amounted to 0.36.
For `OCCn1nc(Cc2cccs2)nc1-c1cnc(N2CCOCC2)nc1` the same measures were -18% and 1.61.
Take `COc1ccccc1CC(=O)Nc1nc(C)no1`: the “% Inhibition” value is -9% and the Z score worked out at 1.49.
For `Cc1ccc(-c2noc(-c3sccc3S(=O)(=O)N(C)c3ccc4c(c3)OCCO4)n2)cc1C` the same measures were -5% and 0.75.
As for `CN(C)S(=O)(=O)CC(=O)N1CCCC[C@@H]1CCc1ccccc1`, the “% Inhibition” value is reported as -5% and the Z score was 0.86.
In the case of `Cn1nc(C(F)(F)F)cc1CS(=O)(=O)c1ccc2c(c1)CCO2`, the “% Inhibition” value is given as -2% and the Z score is recorded as 0.28.
For the molecule `Cc1cccc(-n2nc(-c3cn(C)nc3C)c(C)c2-c2cn(C)nc2C)c1`, the “% Inhibition” value was found to be 27% and the Z score is -3.06.
On to `Cc1cc(C)nc(N[C@@H](C)c2cn(C)nc2C)n1`, for which the “% Inhibition” value is reported as -6% and the Z score turned out to be 0.94.
`CN1C(=O)N([C@H]2CCO[C@@H]2c2cnn(C)c2)C(=O)C1Cc1ccccc1` (stereo partly drawn): the “% Inhibition” value is -2% and the Z score is 0.4.
`C=CCN1CCN(Cc2cnoc2-c2ccccc2)CC1`: the “% Inhibition” value is recorded as 10% and the Z score is listed as -1.83.
For `C[C@H](NC(=O)c1ccccc1N1CCC(NC(=O)NC(C)(C)C)CC1)c1ccccc1` the same measures were 18% and -2.49.
`Cc1cc(C)c(-n2cccn2)c(CN2C[C@H](N(C)C)C[C@H]2C(=O)O)c1`: the “% Inhibition” value is reported as -18% and the Z score worked out at 1.77.
`CC(C)(C)C#C[C@@H]1N(c2ccccc2)N=C(c2ccccc2)N1C(C)(C)C`: the “% Inhibition” value is listed as -3% and the Z score was determined as 0.5.
Take `CC(C)CC[C@H](NCc1cccnc1N1CCOCC1)c1ccoc1`: the “% Inhibition” value is listed as 10% and the Z score is reported as -1.23.
As to `O=c1oc2c(Cl)cc(NS(=O)(=O)c3ccc4ccccc4c3)cc2s1`, the “% Inhibition” value is given as -33% and the Z score was determined as 4.38.
For `O=C(O)c1cccc(Cl)c1CN1C[C@H]2C[C@@H](O)CC[C@H]2C1` the same measures were 3% and -0.34.
For `COc1ccc(C(=O)Nc2nnc(CCCc3ccccc3)s2)c(OC)c1` the same measures were -8% and 1.5.
On to `O=C(NCC1CCCN1CCc1ccccc1)NC1CC2CCC1O2` (stereo not drawn), for which the “% Inhibition” value is 3% and the Z score is on record as -0.3.
With `CCc1nnc(-c2c(C)c(S(=O)(=O)NCc3cccc(Cl)c3)c(C)n2CC)o1`, the “% Inhibition” value is recorded as -13% and the Z score stood at 1.61.
For `CCn1c(COCc2ccccc2)nnc1N1CC(=O)N(C)[C@@H](C)C1` the same measures were -6% and 1.12.
For the molecule `Cc1ccc(C)c([C@@H](O)CN(CC(=O)NC2CC2)C2CC2)c1`, the “% Inhibition” value is on record as -6% and the Z score turned out to be 0.88.
`Cc1ccc(C(=O)N2CCC[C@]3(CCC(=O)N(C4CCCC4)C3)C2)cc1O`: the “% Inhibition” value was found to be 1% and the Z score is -0.2.
For `CN(Cc1ccccc1)C(=O)Cc1noc([C@H]2CCc3cnn(C)c3C2)n1`, the “% Inhibition” value was -8% and the Z score is 0.88.
`CC(C)c1nnc(COCc2ncc[nH]2)s1`: the “% Inhibition” value is listed as 11% and the Z score is -1.41.
For `C[C@]1(C#N)CCCN(C(=O)[C@H]2CC[C@@H](O)CC2)C1` the same measures were -4% and 0.73.
With `COc1cc2ccncc2cc1OC(=O)c1scnc1C`, the “% Inhibition” value is recorded as -5% and the Z score amounted to 0.77.
Take `OCCn1nc([C@H](O)c2ccccc2)nc1-c1cn2ccccc2n1`: the “% Inhibition” value is recorded as -5% and the Z score was found to be 0.58.
As to `COC(C)(C)C[C@H](C)Nc1nc(C)cc(C#N)n1`, the “% Inhibition” value was -8% and the Z score stood at 0.64.
Take `CC(C)(O)CNC(=O)C(=O)Nc1cc(F)c(F)c(F)c1`: the “% Inhibition” value is reported as -7% and the Z score stood at 0.85.
For `CN(C(=O)COc1cccc2c1CCCC2)C1CCCCC1O` (stereo not drawn), the “% Inhibition” value was -11% and the Z score came out at 1.28.
`Cc1cc(-c2nc(C3CC3)no2)c(C)n1CC(=O)NCc1ccccc1Cl`: the “% Inhibition” value is 0% and the Z score came to 0.07.
For `CCn1ccnc1C(C)N1C(=O)C2CC3CCCCC3N2C1=O` (stereo not drawn) the same measures were -4% and 0.61.
As for `Cn1nc([C@@H]2CCCN2S(=O)(=O)Cc2ccccc2F)n(Cc2ccccc2)c1=O`, the “% Inhibition” value is -8% and the Z score stood at 1.01.
`COc1ccc([C@H](CN=C(N)N(C)C2CC2)N2CCCCC2)cc1`: the “% Inhibition” value is recorded as -10% and the Z score stood at 1.8.
With `O=C(CNc1cccc(C(F)(F)F)c1)N1CCC[C@H]1c1nc2ccccc2s1`, the “% Inhibition” value is 9% and the Z score is reported as -0.95.
On to `COc1cccc(C2=CCN(C(=O)Nc3cccnc3OC)C2)c1`, for which the “% Inhibition” value came to 2% and the Z score is -0.31.
For the molecule `O=C(CCN1CCCCC1)N1CCC[C@H]1c1nnc(-c2ccccc2)[nH]1`, the “% Inhibition” value was 0% and the Z score was determined as 0.04.
Turning to `Cc1ccc(NC(=O)Cc2c(C)nc3nc(-c4cccnc4)nn3c2C)cc1C`, the “% Inhibition” value amounted to 3% and the Z score is -0.44.
As to `Cc1noc2ncnc(N3CCC[C@H](C(=O)NCCCN(C)c4ccccc4)C3)c12`, the “% Inhibition” value is 2% and the Z score is on record as -0.24.
For `CCc1ccc([C@@H]2CN(C(=O)c3ccc4cc[nH]c4n3)CCO2)cc1` the same measures were -3% and 0.57.
For `CCOc1cccc(CCNS(=O)(=O)CCC2CCOCC2)n1`, the “% Inhibition” value is -2% and the Z score is 0.41.
For `FC(F)Oc1ccccc1CN1CCCC12CCN(c1ncccn1)CC2`, the “% Inhibition” value is listed as 3% and the Z score is recorded as -0.46.
For the molecule `CCc1nc(C)c(CNC(=O)c2cc(C(C)=O)n[nH]2)s1`, the “% Inhibition” value is listed as -8% and the Z score was 1.29.
Regarding `CC(=O)N[C@H]1CCN(Cc2cnc3c(-c4ccccc4)cnn3c2)C1`, the “% Inhibition” value came out at 4% and the Z score is recorded as -0.51.
For `Cc1ccc(NC(=O)N2CCN(C(=O)C(=O)N3CCCC3)CC2)c(Cl)c1` the same measures were 6% and -1.

By % Inhibition is commonly meant the relative decrease from the control value, in per cent.
